Experimental data from article PMC12820563.
Some of the results follow. The list includes weakly bound sequences.

biological target: T1, MBP-FoxP3dN (UniProt Q99JB6); test: PD-seq (MBP pull-down with sequencing); settings: 20 mM Tris-HCl pH 7.5, 100 mM NaCl, 1.5 mM MgCl2, 0.4 uM protein, 0.1 uM dsDNA library, 30 min, room temperature, amylose pull-down; high values mean tight binding; double strand, one strand shown
T1 sequence: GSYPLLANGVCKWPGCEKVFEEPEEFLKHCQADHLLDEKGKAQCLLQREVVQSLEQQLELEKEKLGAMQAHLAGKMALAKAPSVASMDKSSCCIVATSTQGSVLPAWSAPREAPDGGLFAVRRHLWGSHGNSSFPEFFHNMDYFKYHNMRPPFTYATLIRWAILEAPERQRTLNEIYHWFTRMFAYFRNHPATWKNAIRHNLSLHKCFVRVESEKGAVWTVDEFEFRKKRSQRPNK

Row | Sequence | binding signal (RPM ratio (pull-down/input))
1 | GATGATTGTTCTCCCAGCTGATGAATTCCTGCAGTCGAGTAAACAAATTTTCCTAATCTTTCTGTTCAAGCGCCATCTAC | 0.444
2 | GATGATTGTTCTCCCAGCTGATGAATTGATTCAGTCGAGTAAACAAATTTTCCTAATCTTTCTGTTCAAGCGCCATCTAC | 0.28
3 | GATGATTGTTCTCCCAGCTGATGAATTATGTTGTTCGAGTAAACAAATTTTCCTAATCTTTCTGTTCAAGCGCCATCTAC | 7.62
4 | GATGATTGTTCTCCCAGCTGATGAATTCGGGGTATCGAGTAAACAAATTTTCCTAATCTTTCTGTTCAAGCGCCATCTAC | 0.625
5 | GATGATTGTTCTCCCAGCTGATGAATTTAAGGGATCGAGTAAACAAATTTTCCTAATCTTTCTGTTCAAGCGCCATCTAC | 0.261
6 | GATGATTGTTCTCCCAGCTGATGAATTTTCAATTTCGAGTAAACAAATTTTCCTAATCTTTCTGTTCAAGCGCCATCTAC | 0.283
7 | GATGATTGTTCTCCCAGCTGATGAATTGCGTAGGTCGAGTAAACAAATTTTCCTAATCTTTCTGTTCAAGCGCCATCTAC | 0.803
8 | GATGATTGTTCTCCCAGCTGATGAATTCGTGGTGTCGAGTAAACAAATTTTCCTAATCTTTCTGTTCAAGCGCCATCTAC | 2.02
9 | GATGATTGTTCTCCCAGCTGATGAATTGAAACAGTCGAGTAAACAAATTTTCCTAATCTTTCTGTTCAAGCGCCATCTAC | 0.416
10 | GATGATTGTTCTCCCAGCTGATGAATTCTAGCGCTCGAGTAAACAAATTTTCCTAATCTTTCTGTTCAAGCGCCATCTAC | 0.451
11 | GATGATTGTTCTCCCAGCTGATGAATTGTGTCTCTCGAGTAAACAAATTTTCCTAATCTTTCTGTTCAAGCGCCATCTAC | 2.14
12 | GATGATTGTTCTCCCAGCTGATGAATTCGATAGTTCGAGTAAACAAATTTTCCTAATCTTTCTGTTCAAGCGCCATCTAC | 2.01
13 | GATGATTGTTCTCCCAGCTGATGAATTCGAAATCTCGAGTAAACAAATTTTCCTAATCTTTCTGTTCAAGCGCCATCTAC | 0.286
14 | GATGATTGTTCTCCCAGCTGATGAATTAACGTCCTCGAGTAAACAAATTTTCCTAATCTTTCTGTTCAAGCGCCATCTAC | 0.375
15 | GATGATTGTTCTCCCAGCTGATGAATTCGTCCCATCGAGTAAACAAATTTTCCTAATCTTTCTGTTCAAGCGCCATCTAC | 0.567
16 | GATGATTGTTCTCCCAGCTGATGAATTTCCAGCCTCGAGTAAACAAATTTTCCTAATCTTTCTGTTCAAGCGCCATCTAC | 0.346
17 | GATGATTGTTCTCCCAGCTGATGAATTCCCACTCTCGAGTAAACAAATTTTCCTAATCTTTCTGTTCAAGCGCCATCTAC | 0.323
18 | GATGATTGTTCTCCCAGCTGATGAATTCCGTCGATCGAGTAAACAAATTTTCCTAATCTTTCTGTTCAAGCGCCATCTAC | 0.322
